# The other results are listed elsewhere or left out.
# Experiments:
# Assay in all cases: glycan array binding signal (z-score within array); higher = stronger binding
# Conditions in all cases: glycan notation: IUPAC condensed, linker removed
# [1] = target: Glc(b1-4)Glc
# Summary of the method: (§1)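 Glycan array data were curated from 3228 arrays in the Consortium for Functional Glycomics database and kept only where the protein sequence was available. Glycan names were converted to IUPAC-condensed notation, and columns mapping to the same glycan were averaged. The binding signal is a within-array Z-score, averaged across arrays of the same protein sequence at different concentrations or buffers and across linkers. Negative Z-scores can be read as non-binding.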
# [2] = target: Glc(b1-6)Glc
# Summary of the method: as §1
# [3] = target: GlcA(b1-3)Gal
# Summary of the method: as §1
# [4] = target: GlcA(b1-3)GlcNAc
# Summary of the method: as §1
# [5] = target: GlcA(b1-6)Gal
# Summary of the method: as §1
# [6] = target: GlcA3S(b1-3)Gal(b1-4)GlcNAc(b1-2)Man
# Summary of the method: as §1
# [7] = target: GlcA3S(b1-3)Gal(b1-4)GlcNAc(b1-3)Gal(b1-4)Glc
# Summary of the method: as §1
# [8] = target: GlcNAc(a1-3)Gal(b1-4)GlcNAc
# Summary of the method: as §1
# [9] = target: GlcNAc(a1-4)Gal(b1-3)GlcNAc
# Summary of the method: as §1
# [10] = target: GlcNAc(a1-4)Gal(b1-4)GalNAc
# Summary of the method: as §1
# [11] = target: GlcNAc(a1-4)Gal(b1-4)GlcNAc
# Summary of the method: as §1
# [12] = target: GlcNAc(a1-4)Gal(b1-4)GlcNAc(b1-3)Gal(b1-4)Glc
# Summary of the method: as §1
# [13] = target: GlcNAc(a1-4)Gal(b1-4)GlcNAc(b1-3)Gal(b1-4)GlcNAc
# Summary of the method: as §1
# [14] = target: GlcNAc(a1-4)Gal(b1-4)GlcNAc(b1-3)Gal(b1-4)GlcNAc(b1-3)Gal(b1-4)GlcNAc
# Summary of the method: as §1
# [15] = target: GlcNAc(a1-4)Gal(b1-4)GlcNAc(b1-3)Gal(b1-4)[Fuc(a1-3)]GlcNAc(b1-3)Gal(b1-4)[Fuc(a1-3)]GlcNAc
# Summary of the method: as §1
# [16] = target: GlcNAc(a1-6)Gal(b1-4)GlcNAc
# Summary of the method: as §1
# [17] = target: GlcNAc(b1-2)Gal(b1-3)GalNAc
# Summary of the method: as §1
# [18] = target: GlcNAc(b1-2)Man(a1-3)[GlcNAc(b1-2)Man(a1-6)]Man(b1-4)GlcNAc(b1-4)GlcNAc
# Summary of the method: as §1
# [19] = target: GlcNAc(b1-2)Man(a1-3)[GlcNAc(b1-2)Man(a1-6)]Man(b1-4)GlcNAc(b1-4)[Fuc(a1-6)]GlcNAc
# Summary of the method: as §1
# [20] = target: GlcNAc(b1-2)Man(a1-3)[GlcNAc(b1-4)][GlcNAc(b1-2)Man(a1-6)]Man(b1-4)GlcNAc(b1-4)GlcNAc
# Summary of the method: as §1
# [21] = target: GlcNAc(b1-2)Man(a1-3)[GlcNAc(b1-4)][GlcNAc(b1-2)Man(a1-6)]Man(b1-4)GlcNAc(b1-4)[Fuc(a1-6)]GlcNAc
# Summary of the method: as §1
# [22] = target: GlcNAc(b1-2)[GlcNAc(b1-4)]Man(a1-3)[GlcNAc(b1-2)Man(a1-6)]Man(b1-4)GlcNAc(b1-4)GlcNAc
# Summary of the method: as §1
# [23] = target: GlcNAc(b1-2)[GlcNAc(b1-4)]Man(a1-3)[GlcNAc(b1-4)][GlcNAc(b1-2)Man(a1-6)]Man(b1-4)GlcNAc(b1-4)GlcNAc
# Summary of the method: as §1
# [24] = target: GlcNAc(b1-2)[GlcNAc(b1-4)]Man(a1-3)[GlcNAc(b1-4)][GlcNAc(b1-2)[GlcNAc(b1-6)]Man(a1-6)]Man(b1-4)GlcNAc(b1-4)GlcNAc
# Summary of the method: as §1
# [25] = target: GlcNAc(b1-2)[GlcNAc(b1-4)]Man(a1-3)[GlcNAc(b1-4)][GlcNAc(b1-2)[GlcNAc(b1-6)]Man(a1-6)]Man(b1-4)GlcNAc(b1-4)[Fuc(a1-6)]GlcNAc
# Summary of the method: as §1
# [26] = target: GlcNAc(b1-2)[GlcNAc(b1-6)]Man(a1-6)[GlcNAc(b1-2)Man(a1-3)]Man(b1-4)GlcNAc(b1-4)GlcNAc
# Summary of the method: as §1
# [27] = target: GlcNAc(b1-2)[GlcNAc(b1-6)]Man(a1-6)[GlcNAc(b1-2)Man(a1-3)]Man(b1-4)GlcNAc(b1-4)[Fuc(a1-6)]GlcNAc
# Summary of the method: as §1
# [28] = target: GlcNAc(b1-2)[GlcNAc(b1-6)]Man(a1-6)[GlcNAc(b1-4)][GlcNAc(b1-2)Man(a1-3)]Man(b1-4)GlcNAc(b1-4)GlcNAc
# Summary of the method: as §1
# [29] = target: GlcNAc(b1-3)Fuc
# Summary of the method: as §1
# [30] = target: GlcNAc(b1-3)Gal
# Summary of the method: as §1
# [31] = target: GlcNAc(b1-3)Gal(b1-3)GalNAc
# Summary of the method: as §1
# [32] = target: GlcNAc(b1-3)Gal(b1-4)Glc
# Summary of the method: as §1
# [33] = target: GlcNAc(b1-3)Gal(b1-4)GlcNAc
# Summary of the method: as §1
# [34] = target: GlcNAc(b1-3)Gal(b1-4)GlcNAc(b1-2)Man(a1-3)[GlcNAc(b1-3)Gal(b1-4)GlcNAc(b1-2)Man(a1-6)]Man(b1-4)GlcNAc(b1-4)GlcNAc
# Summary of the method: as §1
# [35] = target: GlcNAc(b1-3)Gal(b1-4)GlcNAc(b1-2)Man(a1-3)[GlcNAc(b1-3)Gal(b1-4)GlcNAc(b1-2)Man(a1-6)]Man(b1-4)GlcNAc(b1-4)[Fuc(a1-6)]GlcNAc
# Summary of the method: as §1
# [36] = target: GlcNAc(b1-3)Gal(b1-4)GlcNAc(b1-2)[GlcNAc(b1-3)Gal(b1-4)GlcNAc(b1-6)]Man(a1-6)[GlcNAc(b1-3)Gal(b1-4)GlcNAc(b1-2)Man(a1-3)]Man(b1-4)GlcNAc(b1-4)GlcNAc
# Summary of the method: as §1
# [37] = target: GlcNAc(b1-3)Gal(b1-4)GlcNAc(b1-3)Gal(b1-4)GlcNAc
# Summary of the method: as §1
# [38] = target: GlcNAc(b1-3)Gal(b1-4)GlcNAc(b1-3)Gal(b1-4)GlcNAc(b1-2)Man(a1-3)[GlcNAc(b1-3)Gal(b1-4)GlcNAc(b1-3)Gal(b1-4)GlcNAc(b1-2)Man(a1-6)]Man(b1-4)GlcNAc(b1-4)GlcNAc
# Summary of the method: as §1
# [39] = target: GlcNAc(b1-3)Gal(b1-4)GlcNAc(b1-3)Gal(b1-4)GlcNAc(b1-2)Man(a1-3)[GlcNAc(b1-3)Gal(b1-4)GlcNAc(b1-3)Gal(b1-4)GlcNAc(b1-2)Man(a1-6)]Man(b1-4)GlcNAc(b1-4)[Fuc(a1-6)]GlcNAc
# Summary of the method: as §1
# [40] = target: GlcNAc(b1-3)Gal(b1-4)GlcNAc(b1-3)Gal(b1-4)GlcNAc(b1-2)[GlcNAc(b1-3)Gal(b1-4)GlcNAc(b1-3)Gal(b1-4)GlcNAc(b1-6)]Man(a1-6)[GlcNAc(b1-3)Gal(b1-4)GlcNAc(b1-3)Gal(b1-4)GlcNAc(b1-2)Man(a1-3)]Man(b1-4)GlcNAc(b1-4)[Fuc(a1-6)]GlcNAc
# Summary of the method: as §1
# [41] = target: GlcNAc(b1-3)Gal(b1-4)GlcNAc(b1-3)Gal(b1-4)GlcNAc(b1-3)Gal(b1-4)GlcNAc(b1-2)Man(a1-3)[GlcNAc(b1-3)Gal(b1-4)GlcNAc(b1-3)Gal(b1-4)GlcNAc(b1-3)Gal(b1-4)GlcNAc(b1-2)Man(a1-6)]Man(b1-4)GlcNAc(b1-4)GlcNAc
# Summary of the method: as §1
# [42] = target: GlcNAc(b1-3)Gal(b1-4)GlcNAc(b1-3)Gal(b1-4)GlcNAc(b1-3)Gal(b1-4)GlcNAc(b1-2)Man(a1-3)[GlcNAc(b1-3)Gal(b1-4)GlcNAc(b1-3)Gal(b1-4)GlcNAc(b1-3)Gal(b1-4)GlcNAc(b1-2)Man(a1-6)]Man(b1-4)GlcNAc(b1-4)[Fuc(a1-6)]GlcNAc
# Summary of the method: as §1
# [43] = target: GlcNAc(b1-3)Gal(b1-4)GlcNAc(b1-3)Gal(b1-4)GlcNAc(b1-3)Gal(b1-4)GlcNAc(b1-2)[GlcNAc(b1-3)Gal(b1-4)GlcNAc(b1-3)Gal(b1-4)GlcNAc(b1-3)Gal(b1-4)GlcNAc(b1-6)]Man(a1-6)[GlcNAc(b1-3)Gal(b1-4)GlcNAc(b1-3)Gal(b1-4)GlcNAc(b1-3)Gal(b1-4)GlcNAc(b1-2)Man(a1-3)]Man(b1-4)GlcNAc(b1-4)[Fuc(a1-6)]GlcNAc
# Summary of the method: as §1
# [44] = target: GlcNAc(b1-3)Gal(b1-4)GlcNAc(b1-3)Gal(b1-4)GlcNAc(b1-3)Gal(b1-4)GlcNAc(b1-3)Gal(b1-4)GlcNAc(b1-2)Man(a1-3)[GlcNAc(b1-3)Gal(b1-4)GlcNAc(b1-3)Gal(b1-4)GlcNAc(b1-3)Gal(b1-4)GlcNAc(b1-3)Gal(b1-4)GlcNAc(b1-2)Man(a1-6)]Man(b1-4)GlcNAc(b1-4)GlcNAc
# Summary of the method: as §1
# [45] = target: GlcNAc(b1-3)Gal(b1-4)GlcNAc(b1-3)Gal(b1-4)GlcNAc(b1-3)Gal(b1-4)GlcNAc(b1-3)Gal(b1-4)GlcNAc(b1-2)Man(a1-3)[GlcNAc(b1-3)Gal(b1-4)GlcNAc(b1-3)Gal(b1-4)GlcNAc(b1-3)Gal(b1-4)GlcNAc(b1-3)Gal(b1-4)GlcNAc(b1-2)Man(a1-6)]Man(b1-4)GlcNAc(b1-4)[Fuc(a1-6)]GlcNAc
# Summary of the method: as §1
binder,measurement,setting,value
"HA-11100 (Pseudomonas aeruginosa), Q02G51_PSEAB (protein) QFNPNEIKISQQGKTTLIDQSTQRAIINWKGFDVSADEAVRFNQPGVTSSTLNRVTAGQESVIAGRISAPGQVIIYNSNGVVFSGSAKVDVGSLITTTANISDEHFRQGKLIFDQPGNPDARIVNDGSISVAEKGLAAFVAPSVANNGVINARLGTVAMAAGNAATIDLYG",glycan array binding signal (z-score),[1],-0.166
same,glycan array binding signal (z-score),[2],0.199
same,glycan array binding signal (z-score),[3],-0.243
same,glycan array binding signal (z-score),[4],-0.046
same,glycan array binding signal (z-score),[5],-0.399
same,glycan array binding signal (z-score),[6],-0.243
same,glycan array binding signal (z-score),[7],-0.525
same,glycan array binding signal (z-score),[8],-0.571
same,glycan array binding signal (z-score),[9],-0.269
same,glycan array binding signal (z-score),[10],-0.191
same,glycan array binding signal (z-score),[11],-0.04
same,glycan array binding signal (z-score),[12],-0.442
same,glycan array binding signal (z-score),[13],-0.145
same,glycan array binding signal (z-score),[14],-0.121
same,glycan array binding signal (z-score),[15],0.246
same,glycan array binding signal (z-score),[16],-0.238
same,glycan array binding signal (z-score),[17],-0.142
same,glycan array binding signal (z-score),[18],-0.208
same,glycan array binding signal (z-score),[19],-0.209
same,glycan array binding signal (z-score),[20],-0.734
same,glycan array binding signal (z-score),[21],-0.527
same,glycan array binding signal (z-score),[22],-0.37
same,glycan array binding signal (z-score),[23],-0.197
same,glycan array binding signal (z-score),[24],-0.518
same,glycan array binding signal (z-score),[25],0.051
same,glycan array binding signal (z-score),[26],-0.238
same,glycan array binding signal (z-score),[27],0.486
same,glycan array binding signal (z-score),[28],-0.502
same,glycan array binding signal (z-score),[29],-0.317
same,glycan array binding signal (z-score),[30],-0.414
same,glycan array binding signal (z-score),[31],-0.226
same,glycan array binding signal (z-score),[32],-0.359
same,glycan array binding signal (z-score),[33],-0.399
same,glycan array binding signal (z-score),[34],0.12
same,glycan array binding signal (z-score),[35],0.106
same,glycan array binding signal (z-score),[36],-0.161
same,glycan array binding signal (z-score),[37],-0.67
same,glycan array binding signal (z-score),[38],3.34
same,glycan array binding signal (z-score),[39],0.011
same,glycan array binding signal (z-score),[40],0.026
same,glycan array binding signal (z-score),[41],-0.332
same,glycan array binding signal (z-score),[42],-0.108
same,glycan array binding signal (z-score),[43],-0.285
same,glycan array binding signal (z-score),[44],-0.475
same,glycan array binding signal (z-score),[45],-0.474
